Assay results as given in article PMC8263776.
These are yes or no findings as the source states them, for the method shown. For some assays here: Binding seen in cells or lysates may run through a third protein. Some binding calls cover weakened binding; strength is not graded here. Sequences can lack the tags named with a protein. Values belong to the binder of their own block, whether it stands above or below them.

Legend:
[1] = target: T1, KCNE4-CFP (mouse) (UniProt Q9WTW3); experiment: co-IP; KCNE4-CFP and KCNE4-HA in HEK-293 lysates in the presence or absence of co-expressed Kv1.3; IP with anti-tag antibody, blots against Kv1.3, KCNE4, GFP or HA
T1 sequence: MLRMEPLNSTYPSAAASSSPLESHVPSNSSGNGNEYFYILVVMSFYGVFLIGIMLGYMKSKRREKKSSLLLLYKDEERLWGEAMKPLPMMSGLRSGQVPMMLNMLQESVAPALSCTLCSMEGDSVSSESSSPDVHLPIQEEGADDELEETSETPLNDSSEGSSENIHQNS

[2] = target: T2, KCNE2WT-CFP (human) (UniProt Q9Y6J6); experiment: co-IP; HEK-293 lysates (1% Triton X-100, 150 mM NaCl, 50 mM HEPES pH 7.4); anti-GFP antibody cross-linked to protein A-Sepharose, 2 h at RT; immunoblot against GFP and HA
T2 sequence: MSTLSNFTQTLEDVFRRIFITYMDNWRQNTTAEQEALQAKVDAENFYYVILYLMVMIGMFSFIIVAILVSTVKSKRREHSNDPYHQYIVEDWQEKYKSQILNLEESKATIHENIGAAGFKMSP

[3] = target: T3, KCNE4(L69-72A)-CFP (mouse) (UniProt Q9WTW3); experiment: as above
T3 sequence: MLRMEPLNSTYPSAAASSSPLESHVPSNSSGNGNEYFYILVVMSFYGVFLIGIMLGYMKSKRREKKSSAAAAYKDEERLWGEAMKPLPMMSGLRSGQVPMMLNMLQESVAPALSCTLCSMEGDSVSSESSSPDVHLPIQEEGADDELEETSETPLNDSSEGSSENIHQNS

[4] = target: T1, KCNE4-CFP (mouse); experiment: as above
[5] = target: T4, KCNE4-YFP (mouse) (UniProt Q9WTW3); experiment: as above
T4 sequence: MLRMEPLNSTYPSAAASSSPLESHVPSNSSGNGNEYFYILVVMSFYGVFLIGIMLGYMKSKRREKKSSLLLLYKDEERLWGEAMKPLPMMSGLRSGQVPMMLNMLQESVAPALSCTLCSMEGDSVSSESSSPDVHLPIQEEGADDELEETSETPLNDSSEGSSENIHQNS

[6] = target: T4, KCNE4-YFP (mouse); experiment: FRET or BRET; acceptor photobleaching in fixed HEK-293 cells, CFP donor and YFP acceptor
[7] = target: T4, KCNE4-YFP (mouse); experiment: FRET or BRET; acceptor photobleaching of KCNE4-CFP/KCNE4-YFP in fixed HEK-293 cells in the absence or presence of co-expressed Kv1.3 or CaM
[8] = target: T1, KCNE4-CFP (mouse); experiment: native gel or EMSA; non-denaturing SDS-PAGE of total HEK-293 lysates (sample buffer 50 mM Tris-HCl pH 6.8, 10% glycerol; 5% gel with 0.1% SDS), immunoblot anti-GFP
[9] = target: T1, KCNE4-CFP (mouse); experiment: cross-linking; HEK-293 lysates (50 mM boric acid, 100 mM K acetate, 2 mM MgCl2, 1 mM EGTA, 1% Triton X-100, pH 8.5) with or without 5 mM DMP for 1 h; 7% SDS-PAGE, immunoblot against CFP
[10] = target: T5, KCNE4-HA (mouse) (UniProt Q9WTW3); experiment: co-IP; KCNE4-CFP and KCNE4-HA in HEK-293 lysates in the presence or absence of CaM, with 2 mM Ca2+ or with 2 mM EDTA/2 mM EGTA; anti-HA antibody cross-linked to protein A-Sepharose, 2 h at RT
T5 sequence: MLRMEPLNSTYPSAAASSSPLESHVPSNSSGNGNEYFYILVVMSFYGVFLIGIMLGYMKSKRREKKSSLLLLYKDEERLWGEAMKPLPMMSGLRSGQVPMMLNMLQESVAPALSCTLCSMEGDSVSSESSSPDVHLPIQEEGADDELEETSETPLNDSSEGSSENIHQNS

[11] = target: T3, KCNE4(L69-72A)-CFP (mouse); experiment: native gel or EMSA; non-denaturing SDS-PAGE of total HEK-293 lysates (sample buffer 50 mM Tris-HCl pH 6.8, 10% glycerol; 5% gel with 0.1% SDS), immunoblot anti-GFP

binding [1]: binds
binding [2]: no binding
binding [3]: no binding
binding [4]: binds
binding [5]: binds
B1: KCNE4-HA (protein, UniProt Q9WTW3 1-170)
chain: MLRMEPLNSTYPSAAASSSPLESHVPSNSSGNGNEYFYILVVMSFYGVFLIGIMLGYMKSKRREKKSSLLLLYKDEERLWGEAMKPLPMMSGLRSGQVPMMLNMLQESVAPALSCTLCSMEGDSVSSESSSPDVHLPIQEEGADDELEETSETPLNDSSEGSSENIHQNS

binding [6]: binds
binding [7]: binds
binding [8]: binds
binding [9]: binds
binding [10]: binds
B2: KCNE4-CFP (protein, UniProt Q9WTW3 1-170)
chain: MLRMEPLNSTYPSAAASSSPLESHVPSNSSGNGNEYFYILVVMSFYGVFLIGIMLGYMKSKRREKKSSLLLLYKDEERLWGEAMKPLPMMSGLRSGQVPMMLNMLQESVAPALSCTLCSMEGDSVSSESSSPDVHLPIQEEGADDELEETSETPLNDSSEGSSENIHQNS

binding [11]: no binding
B3: KCNE4(L69-72A)-CFP (protein, UniProt Q9WTW3 1-170)
chain: MLRMEPLNSTYPSAAASSSPLESHVPSNSSGNGNEYFYILVVMSFYGVFLIGIMLGYMKSKRREKKSSAAAAYKDEERLWGEAMKPLPMMSGLRSGQVPMMLNMLQESVAPALSCTLCSMEGDSVSSESSSPDVHLPIQEEGADDELEETSETPLNDSSEGSSENIHQNS
